Test results taken from PMC4336329 (PLoS ONE, 2015).
Screen size: about 310,000 compounds; about 2,200 (0.71%) showed an effect of 50% or more. Effects have a minus sign here. Some of the results follow. Where a SMILES comes first, the peptide text is derived from it. [ ]: non-standard residue; d: D form. The star is where a group is joined. ξ: configuration not given here. ξY = NC(Cc1ccc(O)cc1)C(=O)O; Cbz = O=C(OCc1ccccc1)*; OtBu = CC(C)(C)O*; tBu = CC(C)(C)*

Each compound was assayed against human ether-à-go-go-related gene (hERG) potassium channel (human, UniProt Q12809) (assay: primary screen, population patch clamp on CHO cells stably expressing hERG).
Chain of human ether-à-go-go-related gene (hERG) potassium channel (Q12809 whole entry, looked up): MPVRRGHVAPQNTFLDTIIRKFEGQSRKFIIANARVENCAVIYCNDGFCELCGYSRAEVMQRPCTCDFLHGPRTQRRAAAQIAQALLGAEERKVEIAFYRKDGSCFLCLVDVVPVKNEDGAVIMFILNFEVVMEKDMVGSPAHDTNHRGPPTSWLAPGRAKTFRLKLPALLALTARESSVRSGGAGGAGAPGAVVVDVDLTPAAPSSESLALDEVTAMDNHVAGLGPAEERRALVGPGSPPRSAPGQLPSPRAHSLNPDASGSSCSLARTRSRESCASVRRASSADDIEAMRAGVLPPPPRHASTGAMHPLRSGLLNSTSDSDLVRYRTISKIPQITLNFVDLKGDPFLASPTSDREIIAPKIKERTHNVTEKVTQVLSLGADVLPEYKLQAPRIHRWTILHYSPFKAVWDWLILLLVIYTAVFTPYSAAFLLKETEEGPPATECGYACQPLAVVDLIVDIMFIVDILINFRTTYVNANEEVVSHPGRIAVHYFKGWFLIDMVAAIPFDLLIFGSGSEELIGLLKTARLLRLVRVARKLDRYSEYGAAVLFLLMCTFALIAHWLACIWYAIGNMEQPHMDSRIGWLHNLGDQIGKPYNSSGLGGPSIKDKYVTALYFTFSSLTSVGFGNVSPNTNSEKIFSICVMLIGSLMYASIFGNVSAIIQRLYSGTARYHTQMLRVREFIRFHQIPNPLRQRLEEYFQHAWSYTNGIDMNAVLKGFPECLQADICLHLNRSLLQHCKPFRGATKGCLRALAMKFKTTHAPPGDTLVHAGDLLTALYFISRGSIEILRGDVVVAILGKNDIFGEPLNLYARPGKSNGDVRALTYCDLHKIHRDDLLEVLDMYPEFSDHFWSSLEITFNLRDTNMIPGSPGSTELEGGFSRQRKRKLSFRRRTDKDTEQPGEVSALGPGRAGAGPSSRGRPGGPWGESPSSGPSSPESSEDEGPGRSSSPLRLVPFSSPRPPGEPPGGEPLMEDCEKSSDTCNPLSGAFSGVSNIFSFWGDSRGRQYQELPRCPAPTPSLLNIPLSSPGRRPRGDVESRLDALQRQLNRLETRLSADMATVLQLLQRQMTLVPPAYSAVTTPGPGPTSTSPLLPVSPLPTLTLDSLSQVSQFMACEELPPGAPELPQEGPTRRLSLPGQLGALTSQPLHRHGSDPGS
`COc1ccc(Nc2cccc3ccccc23)cc1` was tested, and the “hERG current change (%, negative = inhibition) at 1uM” value was 16.4%.
With `CSCCC(NS(=O)(=O)c1ccc2[nH]c(=O)c(=O)[nH]c2c1)C(=O)O` (stereo not shown) the “hERG current change (%, negative = inhibition) at 1uM” value was 5.83%.
In the case of `COC(C(=O)Nc1ccnn1C1CCN(Cc2ccccn2)CC1)c1ccccc1` (stereo not shown), the “hERG current change (%, negative = inhibition) at 1uM” value is reported as 18.1%.
In the case of `Cc1nc2scc(C)n2c(=O)c1S(=O)(=O)Nc1ccc(N2CCOCC2)c(Cl)c1`, the “hERG current change (%, negative = inhibition) at 1uM” value is reported as 12.3%.
In the case of `CCOc1ccc(CCNC(=O)CSc2n[nH]c(N)n2)cc1OCC`, the “hERG current change (%, negative = inhibition) at 1uM” value is reported as 13.5%.
In the case of `O=C(O)[C@H](Cc1ccccc1)NC(=O)N1CCOCC1`, the “hERG current change (%, negative = inhibition) at 1uM” value is reported as 4.61%.
With `COC(=O)C1CCN(C(=O)Cc2ccc(OC)c(OC)c2)CC1` the “hERG current change (%, negative = inhibition) at 1uM” value was 1.78%.
In the case of `CC(C)OCP(=O)(c1ccccc1)c1ccccc1`, the “hERG current change (%, negative = inhibition) at 1uM” value is reported as 6.74%.
`CSc1ccccc1OCc1cc(C(=O)N2CCSCC2)no1` was tested, and the “hERG current change (%, negative = inhibition) at 1uM” value was 12.1%.
With `O=C(Nc1nc2ccc(Cl)cc2s1)C1CC1` the “hERG current change (%, negative = inhibition) at 1uM” value was 18%.
In the case of `Cc1nnsc1C(=O)Nc1ccc(Cl)cc1`, the “hERG current change (%, negative = inhibition) at 1uM” value is reported as -1.96%.
With `COC(=O)C1CCN(C(=O)COC(=O)C2CCN(S(=O)(=O)c3ccc4c(c3)OCCO4)CC2)CC1` the “hERG current change (%, negative = inhibition) at 1uM” value was 17.6%.
For `COCCN(C(=O)COC(=O)CCC(=O)c1ccc(C)cc1)c1c(N)n(Cc2ccccc2)c(=O)[nH]c1=O`, the “hERG current change (%, negative = inhibition) at 1uM” value was 7.35%.
`COc1ccc(S(=O)(=O)Oc2ccc3cccc(N)c3c2)cc1` was tested, and the “hERG current change (%, negative = inhibition) at 1uM” value was 12.7%.
`CCOc1cc(CN2CCOCC2)cc(C(C)=O)c1.Cl` was tested, and the “hERG current change (%, negative = inhibition) at 1uM” value was 13.9%.
`Cc1c(Cl)cnc(NC(=O)COC(=O)c2nn(C)c(=O)c3ccccc23)c1Cl` was tested, and the “hERG current change (%, negative = inhibition) at 1uM” value was 0.749%.
For `CCN1C(=O)[C@H]2[C@@H](c3ccc(-c4ccc(Cl)c(Cl)c4)cc3)N[C@@](C)(C(=O)OC)[C@H]2C1=O.O=C(O)C(F)(F)F`, the “hERG current change (%, negative = inhibition) at 1uM” value was 12.1%.
In the case of `CC(=O)Nc1ccc(OS(=O)(=O)c2ccccc2C)cc1`, the “hERG current change (%, negative = inhibition) at 1uM” value is reported as 17.1%.
For `Cc1cc(NC(=O)CCN2CC(C)OC(C)C2)ccc1Br.Cl` (stereo not shown), the “hERG current change (%, negative = inhibition) at 1uM” value was 4.54%.
`C=CCn1c(SCC(=O)c2c(N)n(C)c(=O)n(C)c2=O)nnc1-c1ccccc1F` was tested, and the “hERG current change (%, negative = inhibition) at 1uM” value was 1.97%.
With `C=CCOc1cccc(C(=O)N(C)C2CCCN(Cc3ccccc3F)C2)c1` (stereo not shown) the “hERG current change (%, negative = inhibition) at 1uM” value was 5.69%.
For `CC(C(=O)c1ccc(Cl)cc1Cl)n1cncn1.O=[N+]([O-])O` (stereo not shown), the “hERG current change (%, negative = inhibition) at 1uM” value was 9.38%.
With `C[N+](C)=C1SCC(C)(/C=N/O)S1.[Br-]` (stereo not shown) the “hERG current change (%, negative = inhibition) at 1uM” value was 11.8%.
`O=S1(=O)N=C(N(CCO)/N=C/c2ccccc2F)c2ccccc21` was tested, and the “hERG current change (%, negative = inhibition) at 1uM” value was 10.2%.
`CCOC(=O)C1CCN(c2c(Nc3ccc(C)c(C)c3)c(=O)c2=O)CC1` was tested, and the “hERG current change (%, negative = inhibition) at 1uM” value was 4.46%.
In the case of `Cc1cc(C)c(C#N)c(SCC(=O)N2CCN(Cc3ccccc3)CC2)n1`, the “hERG current change (%, negative = inhibition) at 1uM” value is reported as 4.4%.
In the case of `C=CCn1c(SCC(=O)Nc2ccc(Cl)cn2)nnc1C1CC1`, the “hERG current change (%, negative = inhibition) at 1uM” value is reported as 1.93%.
For `Cc1c(Cc2ccccc2)c(=O)oc2cc(OCC(=O)N3CCC(C(N)=O)CC3)ccc12`, the “hERG current change (%, negative = inhibition) at 1uM” value was -3.02%.
For `O=C(NC1CC1)c1cc(OCC(F)(F)F)ccc1OCC(F)(F)F`, the “hERG current change (%, negative = inhibition) at 1uM” value was -4.1%.
In the case of `Cc1cc(=S)cc(C)n1CCO`, the “hERG current change (%, negative = inhibition) at 1uM” value is reported as 15.5%.
For `N#Cc1cccnc1N1CCN(C(=O)c2ccccc2)CC1`, the “hERG current change (%, negative = inhibition) at 1uM” value was 11.8%.
In the case of `CC(C)c1nnc(NC(=O)c2cnccn2)s1`, the “hERG current change (%, negative = inhibition) at 1uM” value is reported as 16%.
In the case of `COc1ccc(/C=N/NC(=O)C[n+]2ccccc2)c(OC)c1OC.[Cl-]`, the “hERG current change (%, negative = inhibition) at 1uM” value is reported as 5.43%.
For `CCOC(=O)C1C(=O)NC(N2CCN(c3ccccc3)CC2)=NC1c1ccccc1` (stereo not shown), the “hERG current change (%, negative = inhibition) at 1uM” value was 3.25%.
For `CC(C)OC(=O)c1ccc(OC(=O)c2cccnc2)cc1`, the “hERG current change (%, negative = inhibition) at 1uM” value was 12.4%.
In the case of `CCC(C)NC(=O)CSc1nnc(-c2ccncc2)n1-c1ccc(OC)cc1` (stereo not shown), the “hERG current change (%, negative = inhibition) at 1uM” value is reported as 4.29%.
For `N#Cc1sc2nc(C3CC3)cc(-c3ccc(Cl)cc3)c2c1N`, the “hERG current change (%, negative = inhibition) at 1uM” value was 13.5%.
In the case of `CC(C)(C)OC(=O)C(Cc1ccc(OC(C)(C)C)cc1)NC(=O)CNC(=O)OCc1ccccc1` (stereo not drawn) (Cbz-Gly-[ξY](tBu)-OtBu), the “hERG current change (%, negative = inhibition) at 1uM” value is reported as -1.72%.
`Cc1cccc(N2C(S)=C(C#N)C(=O)NC23CCCCC3)c1` was tested, and the “hERG current change (%, negative = inhibition) at 1uM” value was 5.68%.
For `Cc1nc2ccccc2n1CC(O)Cn1c2ccccc2c2ccccc21` (stereo not shown), the “hERG current change (%, negative = inhibition) at 1uM” value was 3.19%.
For `O=C(NC(=S)NCCc1ccccc1)c1ccccc1`, the “hERG current change (%, negative = inhibition) at 1uM” value was 6.16%.
In the case of `N#CC1=C(N)OC2=C(C(=O)CCC2)C1c1ccccc1` (stereo not shown), the “hERG current change (%, negative = inhibition) at 1uM” value is reported as -12.8%.
With `COc1ccccc1NS(=O)(=O)c1cc(C(=O)N2CCCC2)ccc1C` the “hERG current change (%, negative = inhibition) at 1uM” value was 4.93%.
For `O=c1[nH]ncn1-c1cccc(C(F)(F)F)c1`, the “hERG current change (%, negative = inhibition) at 1uM” value was 15.2%.
`Cc1cccc(Nc2ncc3c(n2)CC(c2ccco2)CC3=O)c1` (stereo not shown) was tested, and the “hERG current change (%, negative = inhibition) at 1uM” value was 8.27%.
`CC(C)(C)C(=O)N(Cc1ccc(Cl)cc1)Cc1cccnc1` was tested, and the “hERG current change (%, negative = inhibition) at 1uM” value was -1.25%.
With `O=C(O)[C@H](Cc1ccccc1)NC(=O)N1CCCCCC1` the “hERG current change (%, negative = inhibition) at 1uM” value was 7.99%.
For `COc1ccc(NC(=O)c2ccc(S(=O)(=O)N3CCCC3)cc2)cc1OC`, the “hERG current change (%, negative = inhibition) at 1uM” value was -102%.
In the case of `CN(C)C(=O)Oc1cccc2c(OC(=O)N(C)C)cccc12`, the “hERG current change (%, negative = inhibition) at 1uM” value is reported as 8.06%.
With `CC(C)(C)n1nc2c(c1NC(=O)c1ccc(Cl)c([N+](=O)[O-])c1)CS(=O)(=O)C2` the “hERG current change (%, negative = inhibition) at 1uM” value was 6%.
For `Cc1ccc(OCC(=O)Nc2cc(NC(=O)COc3ccc(C)cc3)cc(C(=O)O)c2)cc1`, the “hERG current change (%, negative = inhibition) at 1uM” value was 19.7%.
For `CC(C)(C)N=C1SCC(C)(/C=N/O)S1` (stereo not shown), the “hERG current change (%, negative = inhibition) at 1uM” value was 9.57%.
For `CCC(=NCc1ccco1)c1c(O)n(C)c(=O)n(C)c1=O`, the “hERG current change (%, negative = inhibition) at 1uM” value was 13.8%.
`O=C(COC(=O)c1ccccc1C(=O)c1ccc(Cl)c([N+](=O)[O-])c1)NC1CC1` was tested, and the “hERG current change (%, negative = inhibition) at 1uM” value was 5.78%.
`Cc1cccc(Nc2nc(N)nc(CN3CCN(c4ccccc4)CC3)n2)c1` was tested, and the “hERG current change (%, negative = inhibition) at 1uM” value was -7.51%.
`CC(=O)C1=C(C)NC(=O)NC1c1ccc(OC2CCCC2)cc1` (stereo not shown) was tested, and the “hERG current change (%, negative = inhibition) at 1uM” value was 2.8%.
With `CCc1c(O)nc(SCc2ccc(F)cc2)[nH]c1=O` the “hERG current change (%, negative = inhibition) at 1uM” value was 11.8%.
With `CN(C)c1ccc(C(C(=O)NC2CCCC2)N(C(=O)c2csnn2)C2CC2)cc1` (stereo not shown) the “hERG current change (%, negative = inhibition) at 1uM” value was 6.93%.
